From the RNAGym collection of RNA variant scans (doi:10.1073/pnas.2313332121)
Variants at the background level are over-represented here.

B1: TPR 5TU (parent)
chain: GGAUCUUCUCGAUCUAACAAAAAAGACAAAUCUGCCACAAAGCUUGAGAGCAUCUUCGGAUGCAGAGGCGGCAGCCUUCGGUGGCGCGAUAGCGCCAACGUUCUCAACUAUGACACGCAAAACGCGUGCUCCGUUGAAUGGAGUUUAUCAUG

Variants of: B1
Assay: polymerase ribozyme fitness, log enrichment relative to wild type (log ratio); higher = more active; in vitro selection for triplet polymerase activity
Procedure, shortened: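 For each subunit of a heterodimeric triplet polymerase ribozyme, a mutant library was built by PCR and transcribed, then taken through a single in vitro selection round in triplicate. Selection involved annealing to a biotinylated primer, the partner subunit and triplets, incubation frozen at −7 °C, gel excision of extended constructs, capture on streptavidin beads and RT-PCR. Genotypes were retained after Illumina sequencing of inputs and outputs only with ≥10 input reads and ≥1 read in each output. Fitness is defined as the logarithm of a genotype's enrichment relative to wild-type enrichment, using inverse-variance-weighted averages across replicates, with the logarithm taken to base 2.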

Variant	polymerase ribozyme fitness (log ratio)
U9C A16U G86C C108U C118G G133U	≤ -4.2
U9C A17U A30G G42C C51A C87U	≤ -4.2
U9C A21C G25A G84A U109C G141A	≤ -4.2
U9C A21U G48A A91U C99U	≤ -4.2
U9C A22U U53G C79U	≤ -4.2
U9C A24U G62U C85U	≤ -4.2
U9C A28C C36A C87U C116U	≤ -4.2
U9C A28U A30C U61A G88A A91U G92A A119U	≤ -4.2
U9C A29U U31C U44A C75A C85A G141A	≤ -4.2
U9C A30G C54U C75A C96U C123U	≤ -4.2
U9C A30U C51G C57G C96A A98U C105G A142G	≤ -4.2
U9C A40C A41G A47C U55A U82G U101G U102G U146C	≤ -4.2
U9C A41C A49G U109C G136U	≤ -4.2
U9C A73U	-4.1
U9C C10U A16U A19C C85G G94C C105U A106U	≤ -4.2
U9C C14A C27A A40C U45A C93G A120G	≤ -4.2
U9C C18G A24C	≤ -4.2
U9C C27U A30C G34A G50C A91G C132G	≤ -4.2
U9C C93A G133A G141U	≤ -4.2
U9C C93G G141C	≤ -4.2
U9C G25C U56A C93U C99G	≤ -4.2
U9C G42U U55A C96G	≤ -4.2
U9C G62C G80C G86C C87U	≤ -4.2
U9C U15A G25U G86U C131G	≤ -4.2

Variant	polymerase ribozyme fitness (log ratio)
U9C U15G A24C U44A C51G G94A G143A	≤ -4.2
U9C U33G A52C C93G A110U	≤ -4.2
U9C U44A A73U G80C C93U	≤ -4.2
U9C U44A G46C A47G C85U A121G	≤ -4.2
U9C U53A G58U A60C A66C A147C	≤ -4.2
U9C U55G C57G G74A G84A C123U G128U	≤ -4.2
U9G A16G C18A C63U	≤ -4.2
U9G A16U A64U C85G U135C U144G A150U	≤ -4.2
U9G A17C C57A G59U C63U G94A C108U	≤ -4.2
U9G A17U G94A	≤ -4.2
U9G A21G U45C U53A C123U	≤ -4.2
U9G A22C A60C G62A C103A	≤ -4.2
U9G A23C U56A A73U G86C	≤ -4.2
U9G A23U G34C C57A C93A	≤ -4.2
U9G A24C C38A C76G C79A G80U A142U	≤ -4.2
U9G A24U C35A C38U C85A G126U	≤ -4.2
U9G A26U A73G G84A A89C A150C	≤ -4.2
U9G A28U A73G C85G A106G C116A	≤ -4.2
U9G A28U C75U G84C U104G A106U U144A	≤ -4.2
U9G A29C C32G G58C C76A C79A C118G G141C G143A	≤ -4.2
U9G A37U C57U C85U G128A G141A U146A	≤ -4.2
U9G A39G A40U G48C C75A C93U	≤ -4.2
U9G A40C	-3.48
U9G A41G G42A U55G C69A C79U U82A	≤ -4.2

Variant	polymerase ribozyme fitness (log ratio)
U9G A47U A66C C76G G83A A106C	≤ -4.2
U9G A66C C95U C96A C131U	≤ -4.2
U9G A107C	≤ -4.2
U9G C10A A73C U109G G126A A150G	≤ -4.2
U9G C10A G59A C72A C75A G80C C85A	≤ -4.2
U9G C10U A26C C132G U139A	≤ -4.2
U9G C14G U44A U56G G67A C93U A120G U134C	≤ -4.2
U9G C18U U33G G74C C103G C118U C131A C149U	≤ -4.2
U9G C18U U45G G48A C76U	≤ -4.2
U9G C27A C96A	≤ -4.2
U9G C27A G68U G83C C123A C132U	≤ -4.2
U9G C27G A28G C93A G141U	≤ -4.2
U9G C32A U55A C57U C93G A142C U148C	-4.04
U9G C32U C38U A49C G58A A60U C87G C95U G133U A142U	≤ -4.2
U9G C36A A40C U44A C96G A97U	≤ -4.2
U9G C36A U82A C96U C118U	≤ -4.2
U9G C36U	≤ -4.2
U9G C36U C76A G94A	≤ -4.2
U9G C51A A113G	≤ -4.2
U9G C51U A110G C114A A138C	≤ -4.2
U9G C54G C57A C85U G117U	≤ -4.2
U9G C54G G86U G94A G140A A150G	≤ -4.2
U9G G11A G58U G62C G92A A110U	≤ -4.2
U9G G11U C38U G50C A106U G136U	≤ -4.2

Variant	polymerase ribozyme fitness (log ratio)
U9G G25C A47G C87A G92U C114A	≤ -4.2
U9G G25U A64G A73G C87G A89U C125G A137U	≤ -4.2
U9G G42A C93U A120C G141U	≤ -4.2
U9G G42C U45G G50C C75U A89C C96U U151A	≤ -4.2
U9G G48A U53A A64G U77G C87U A138G	≤ -4.2
U9G G48U C85G G143U	≤ -4.2
U9G G50C C57A C85U G88A A89C G124C	≤ -4.2
U9G G58A U102G A138G	≤ -4.2
U9G G59C C72U C87U A91C	≤ -4.2
U9G G83C A98G	≤ -4.2
U9G G92A C116U C125U U134C	≤ -4.2
U9G U15C C87G A113G A142G	≤ -4.2
U9G U15G C27G U31A C38A A66C G67A C87U C99G G143C	≤ -4.2
U9G U15G G62A C96A	≤ -4.2
U9G U56A	-4.07
U9G U82A C116G A120G G124C A142G	≤ -4.2
U9G U145C	-3.95
C10A A12U C32U C79U G80C C85A	≤ -4.2
C10A A16G C32G G50A G133C	≤ -4.2
C10A A16U A21C A91U C105U	≤ -4.2
C10A A16U U33A A121U G141C	-4.19
C10A A20U U31C C43U A89G C96U G136C A147C C149U	≤ -4.2
C10A A21G G86A A89U	≤ -4.2
C10A A21U G59C C87A C123A G136A	≤ -4.2

Variant	polymerase ribozyme fitness (log ratio)
C10A A22U G83C G117C C149U	≤ -4.2
C10A A24C A29C	≤ -4.2
C10A A24C G71A U77G G94A C99A C125U G140C	≤ -4.2
C10A A24U A37C A60G G84A C85U	≤ -4.2
C10A A29G A39U G65A C87G C108G G126U	≤ -4.2
C10A A39U G86C U109G U130C	≤ -4.2
C10A A40C A49C U53A C79U G141U	≤ -4.2
C10A A40G G42C C54A U82G G84A A98C	≤ -4.2
C10A A41G G50A C54U C87A A89G C96A A106C	≤ -4.2
C10A A47C G83A	≤ -4.2
C10A A47G A52C G68C C85A	≤ -4.2
C10A A49U C57G A64G G92U	≤ -4.2
C10A A106G G126U	≤ -4.2
C10A C14U A30G A41G G59A A60C C99A	≤ -4.2
C10A C14U C57A G83C	≤ -4.2
C10A C27A G65C C96A A115U	≤ -4.2
C10A C32G U77A C87G C116U	≤ -4.2
C10A C32U A39G G81C A89U C105U C129A U145C	≤ -4.2
C10A C35A C93G C105A C123G U145A	≤ -4.2
C10A C35G C87U G112U C114U C118U	≤ -4.2
C10A C36A G71U U127G U146A	≤ -4.2
C10A C36A U55G G59U	≤ -4.2
C10A C54A	≤ -4.2
C10A C54A A91C C105A C129A G143C	≤ -4.2

Variant	polymerase ribozyme fitness (log ratio)
C10A C76G G81A G86U A137U	≤ -4.2
C10A C79A A97G A150G	≤ -4.2
C10A C79A G83C	≤ -4.2
C10A C93G U146C U151G	≤ -4.2
C10A C95U	-3.57
C10A G42C U44A U53A C85A A122C	≤ -4.2
C10A G46U G62C G80A C118G	≤ -4.2
C10A G46U U55A U82G C87U C108G A147C	≤ -4.2
C10A G58A C79U C85U G88U	≤ -4.2
C10A G59A C63U C93G G140U	≤ -4.2
C10A G59C U144G	≤ -4.2
C10A G81C	≤ -4.2
C10A U13C U135G	≤ -4.2
C10A U13G C32G A37C C57A G88A G112C C114U	≤ -4.2
C10G A12U G50U U61A C99A G141U	≤ -4.2
C10G A16U C35U C69G C87A G117U U148G	≤ -4.2
C10G A17C A28U A64U C93U	≤ -4.2
C10G A17G A22U A24U G46U G59U C87G	≤ -4.2
C10G A17G C72G G88C C125U U134A U139A	≤ -4.2
C10G A19C A28C C69G U90A C95A U135C A138U	≤ -4.2
C10G A19C C27G U78C G83U G94A G117U C118A U148G	≤ -4.2
C10G A19G A30C U78G G92C C132U	≤ -4.2
C10G A20U C35A C85G A142C	≤ -4.2
C10G A20U C72G G84A A97G A98G A110U U151A	≤ -4.2

Variant	polymerase ribozyme fitness (log ratio)
C10G A21C A22U C27G C38A A39C A47U A60G C85U C95G U139G	≤ -4.2
C10G A22G C51A U53A C54A C72A	≤ -4.2
C10G A22G U44A G80C	≤ -4.2
C10G A26U A28C C87A G88U A91C U145C	≤ -4.2
C10G A28C G58A A66C G71A C87U C93G	≤ -4.2
C10G A29C C38G A52U C87U G88U C93U A110U	≤ -4.2
C10G A29U C63A G140U	≤ -4.2
C10G A30U C43U C57U C79G U146A	≤ -4.2
C10G A30U U45C C75U G88C G143C	≤ -4.2
C10G A40U A64U C76G C85A G117U G136A G143A	≤ -4.2
C10G A41C G42C U61A A89C U90G C93U C99G A107G C116U G140C	≤ -4.2
C10G A41G A66G G88C C108U	≤ -4.2
C10G A41G C57U C85U A97C U109A	≤ -4.2
C10G A47C G62C G68A C87A C118G U127C	≤ -4.2
C10G A49C U53A C116G	≤ -4.2
C10G A49C U109G	≤ -4.2
C10G A49G C57G C76A C85U	≤ -4.2
C10G A49U G50C G65A G70C C96U A147C	≤ -4.2
C10G A52C C93U	≤ -4.2
C10G A52C G86C U101G A107C C129A A142U	≤ -4.2
C10G A52U C54U C57U G59C C63G G68U U78G G83U C96U A98U	≤ -4.2
C10G A60G C96G U104A A110U U127C	≤ -4.2
C10G A64C G65U G86U C93G A97G	≤ -4.2
